From paper PMC12040169 (PLOS Biology, 2025)
This is one part of the list.

Tested on: T1, C. trachomatis L2/434/Bu expressing GFP (CTL2-GFP)
T1 construct: L2/434/Bu GFP intracellular growth in HeLa cells
Parameters: species or system HeLa; C. trachomatis total inclusion area by high-content imaging, normalised to DMSO
Conditions: total inclusion area; 28.5 h, 10 µM; inhibitor
Procedure, shortened: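 Following bulk GFP and resorufin fluorescence reads, infected cells were fixed, Hoechst-stained and imaged on a high-content platform. Inclusion total area and number per well served as growth proxies; nuclei counts indicated host viability. MICs were derived as for the fluorescence assay.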

Row | Structure (SMILES) | % of control remaining
1 | CC(C)C(=O)NC(NC(=S)Nc1cccc2cccnc12)C(Cl)(Cl)Cl (stereo not shown) [CBK261051] | 89.866
2 | CC(=O)N[C@H]1CC[C@]2(C)CCC([C@H](C)C(=O)NCCN3CCOCC3)[C@H](O)[C@H]2[C@@H]1C (stereo partly shown) [CBK289434] | 87.1246
3 | Oc1ccccc1CN1CCN(Cc2ccccc2O)C1c1ccccc1Br [CBK262050] | 92.304
4 | Cc1cccc2sc(NC(=O)c3ccccc3)nc12 [CBK287300] | 74.2906
5 | O=C(Nc1ccc2n(c1=O)C[C@@H]1CNC[C@H]2C1)c1ccc(F)cc1 [CBK289078] | 95.8656
6 | CS(=O)(=O)c1ccc(C(=O)N(Cc2ccccc2)c2ccc(S(=O)(=O)N3CCOC3=O)cc2)cc1 [CBK024590] | 95.9283
7 | C#CC1(NC(=O)NS(=O)(=O)c2ccc(C)cc2)CCCCC1 [CBK028805] | 98.5879
8 | Cc1c(F)cccc1CNCCNC(=O)OC(C)(C)C [CBK056700] | 101.225
9 | CN(C1CCCCC1)S(=O)(=O)c1cc(Cl)ccc1Cl [CBK261744] | 96.1311
10 | CCCn1ncc(C(=O)N2CCc3c([nH]c4ccccc34)C2C)c1C (stereo not shown) [CBK281546] | 99.3378
11 | CC(C)NC(=O)c1cc([C@H]2CC[C@H](CNC(=O)CN3CCCC3)CC2)nc2ccccc12 [CBK285861] | 97.5989
12 | O=C(O)Cn1c2ccccc2c2nc3ccccc3nc21 [CBK263649] | 67.8281
13 | Fc1cnc(N2CCCC3(CCOC3)C2)nc1N1CCOCC1 (stereo not shown) [CBK307131] | 72.039
14 | CCOC(=O)C1(O)CCN(c2ccc(C#N)cc2F)CC1 [CBK304836] | 67.4612
15 | NNC(=O)CCn1c2ccc(Cl)cc2c2cc(Cl)ccc21 [CBK261413] | 95.2441
16 | CCN1CCN(c2ccc(NC(=O)Cn3cnc4c(=O)n(C)c(=O)n(C)c43)cc2Cl)CC1 [CBK269535] | 94.99
17 | CCCNS(=O)(=O)c1cc(C(=O)O)ccc1OC [CBK287152] | 100.463
18 | O=C(CSc1nc(-c2ccccc2)cc(=O)[nH]1)NCc1ccccc1 [CBK287734] | 54.9077
19 | Cc1csc(C(Cc2cccs2)NC(=O)Cc2ccccn2)n1 (stereo not shown) [CBK285005] | 103.958
20 | OCCC1CNCCN1CC1CCCCC1 (stereo not shown) [CBK270115] | 88.9875
21 | Cc1cc2ccccc2n2c(=O)n(CC(=O)N3CCCCCC3)nc12 [CBK283883] | 93.3148
22 | Cc1ccccc1S(=O)(=O)Nc1nccnc1-c1ccc2c(c1)OCO2 [CBK050941] | 97.5657
